The other results are listed elsewhere or left out. At the low end of the ranking the order means little.

For this experiment, the target named is T1, GST-Rok (full length) (UniProt O34857).
T1 sequence: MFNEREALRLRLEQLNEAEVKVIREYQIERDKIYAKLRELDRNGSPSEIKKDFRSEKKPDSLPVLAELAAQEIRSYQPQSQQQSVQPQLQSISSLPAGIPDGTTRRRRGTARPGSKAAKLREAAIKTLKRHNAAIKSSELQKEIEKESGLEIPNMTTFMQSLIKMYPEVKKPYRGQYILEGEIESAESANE
Briefly: protein binding microarray.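 Also: rank score from −0.5 (least bound) to 0.5 (best bound).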 As to conditions: Rok is a gene silencer of Bacillus subtilis; high values mean tight binding; most listed sequences are background and not binding sites; double strand, one strand shown.
On to AAAACGGC, for which the binding signal was -0.0778 E-score. Then AGCTTGTG, with -0.139 E-score; and CTATTGGA, with -0.0235 E-score; and TCGGTAGA, with 0.231 E-score.

In the case of CAAGATGG, the binding signal was -0.0564 E-score. For AAAGGATA, the binding signal worked out at 0.12 E-score. Sequence ATCGAGCA gave a binding signal of -0.0567 E-score.

For the sequence AACAAGGT, the binding signal is 0.0919 E-score. For CGACCTCG, the binding signal is -0.115 E-score. Then CCATGAAG, with -0.169 E-score. Regarding ATCGCAGG, the binding signal was -0.191 E-score. Then CAAAAGTC, with -0.12 E-score. For the sequence TCATCCCA, the binding signal came out at 0.0226 E-score.

Sequence CTACTAGA showed a binding signal of 0.32 E-score. For ACCAGGCA, the binding signal is -0.311 E-score. Then ACTGTTTA, with 0.211 E-score; and CTACATTC, with 0.176 E-score.

As for ACCCTGTC, the binding signal is -0.0851 E-score.

CTAATTTC displayed a binding signal of 0.162 E-score. In the case of CTAAACGC it was 0.0619 E-score; in that of ACACGAAG, -0.175 E-score; in that of CGGGCAGC, -0.142 E-score. As for AAACAAGT, the binding signal is -0.075 E-score. Then AGCTGCTA, with -0.0649 E-score. In turn, CGCCTAAC gave a binding signal of -0.198 E-score. In the case of AGATCCGG it was 0.0294 E-score; in that of GAGCTAAC, 0.0297 E-score; in that of CTTTGCGA, -0.257 E-score. As to AAAGGATC, the binding signal was -0.0686 E-score. In the case of GATGCACC it was -0.00513 E-score. As for ACTGGAGG, the binding signal is -0.249 E-score. Then GCGACGTA, with 0.108 E-score; and ATAAAAGG, with 0.0655 E-score; and GAGGCAAC, with -0.218 E-score.

For CGATCGCG, the binding signal is 0.0715 E-score. In turn, CGCCGCGC had a binding signal of -0.194 E-score. Then CGGAGAGC, with -0.301 E-score. ACATCAGC returned a binding signal of 0.165 E-score. In the case of AAAAAATC it was -0.0765 E-score; in that of CAGATGAG, -0.347 E-score. In the case of AGGAAACA it was 0.0224 E-score; in that of ACTATTTG, 0.254 E-score.

ACTAGCGC registered a binding signal of 0.0437 E-score. In the case of TGACGTCA it was 0.0521 E-score; in that of CCGCAACA, 0.143 E-score. The sequence CATGGGGC showed a binding signal of -0.232 E-score. Then CCAATCCC, with -0.3 E-score.

As for TATCTCCA, the binding signal worked out at 0.21 E-score. In turn, ACGAAGGA returned a binding signal of -0.0401 E-score. In the case of GAATAGGA it was 0.0882 E-score; in that of ATCGCCGG, -0.239 E-score; in that of GCCGTAGC, -0.142 E-score.

AGCTGTAT showed a binding signal of 0.0771 E-score.

GTCGTTTA: the binding signal amounted to 0.0636 E-score. CGTGAAGA: the binding signal is -0.216 E-score.

In the case of ACAAAACG, the binding signal is -0.0168 E-score.

Turning to ACTCCCCT, the binding signal was -0.408 E-score. Consider AAAGTATT, for which the binding signal was 0.241 E-score. Then GTATCCTA, with 0.13 E-score.

Consider CTCCGCAC, for which the binding signal is -0.0371 E-score. In the case of ATTTACCC it was 0.126 E-score; in that of GATGCTGC, -0.165 E-score.

On to GTTAATTA, for which the binding signal was determined as 0.203 E-score. With ACGACACA, the binding signal was -0.00361 E-score. The sequence CCCCGAGA yielded a binding signal of -0.305 E-score.

For the sequence GCTTCCGA, the binding signal was -0.17 E-score. In the case of CTGGAAAG it was -0.166 E-score; in that of TCTTTGCA, 0.0291 E-score. Then ACAACAGG, with 0.0538 E-score; and AACTTTTC, with -0.0564 E-score. In turn, GACATGAA displayed a binding signal of 0.0513 E-score. Sequence CGTGCAGA gave a binding signal of -0.135 E-score. Then ACAAAGAC, with 0.25 E-score; and ACCCGGTG, with -0.34 E-score. Consider ACTCGGTC, for which the binding signal was -0.0736 E-score.

For the sequence AACGGGGA, the binding signal was -0.206 E-score. In the case of ACCAGGAC it was -0.0352 E-score; in that of AGGACCAC, -0.18 E-score; in that of CAGGTCCC, -0.278 E-score. In the case of AGCCACAG it was -0.298 E-score. In the case of GACACTTA it was 0.00922 E-score; in that of CGCGCACA, 0.0803 E-score.

For GCCGTGCA, the binding signal was determined as 0.033 E-score. In the case of CTTTGTCA it was -0.166 E-score; in that of AACTTATG, 0.122 E-score; in that of CCACAAAG, -0.145 E-score.

CGAGATGA: the binding signal is -0.131 E-score. CACGTGGA: the binding signal is -0.0497 E-score.

AAACGCTT displayed a binding signal of -0.0899 E-score. For the sequence AACGGAAG, the binding signal is -0.0939 E-score. Sequence GCTGAAGC registered a binding signal of -0.214 E-score. Then AGAAAAGG, with -0.202 E-score; and ATGCTTCA, with -0.0514 E-score.

ACTCATAC showed a binding signal of 0.213 E-score. For the sequence GGTAAGAA, the binding signal is 0.116 E-score. CGAACATA yielded a binding signal of 0.00704 E-score. For the sequence AGTCCTTA, the binding signal came out at 0.0442 E-score. In the case of GGCTCCCA it was -0.297 E-score; in that of ATAGTCAT, 0.069 E-score. GCGTACAC had a binding signal of 0.142 E-score.

For the sequence CACCTAGG, the binding signal is -0.199 E-score.

GCTTACCC came in with a binding signal of -0.171 E-score. In the case of GGTGGACA it was -0.261 E-score. In the case of TGCCCAAA it was -0.0262 E-score. As to ACTGCTGG, the binding signal is -0.164 E-score.

On to ACATCTTG, for which the binding signal came out at 0.0436 E-score. In the case of ACACGTAG it was -0.0632 E-score.

Take GAAAGCAC: the binding signal was -0.17 E-score. In the case of AAATACCT it was 0.278 E-score; in that of CCATTGAA, -0.163 E-score. Then GACCGTAA, with 0.00868 E-score.

For GGCCCGAC, the binding signal is -0.372 E-score.

Sequence CCCGTCGG showed a binding signal of -0.255 E-score. AAGACATA came in with a binding signal of -0.0219 E-score. CGGAGCAA showed a binding signal of -0.0257 E-score.

In turn, GGAGTAAC showed a binding signal of -0.0713 E-score. In the case of AGTTCCTA it was 0.128 E-score; in that of TCGCCTAA, -0.0105 E-score; in that of ATCTGACA, -0.0422 E-score. ATTCCCCG registered a binding signal of -0.132 E-score. Regarding CTACGTTA, the binding signal was -0.0876 E-score. CGAGTACG had a binding signal of 0.00167 E-score. In the case of CCCCTTGA it was -0.262 E-score; in that of ATCAAAAT, 0.163 E-score.

The sequence AAGCGATC gave a binding signal of -0.145 E-score. Then GCCTTACA, with 0.0304 E-score; and ATAGTACC, with 0.304 E-score; and CCAAGACG, with -0.105 E-score.

Regarding ACAACAGA, the binding signal was -0.0483 E-score. In the case of AAGATTCC it was -0.109 E-score. With ATGCAAAC, the binding signal is -0.019 E-score. In the case of CACGAGTA it was 0.00531 E-score; in that of ACTATACT, 0.26 E-score; in that of AATGAGCC, -0.0748 E-score.

Take CCTCTACA: the binding signal amounted to 0.142 E-score. In the case of CGTTTAGA it was -0.0128 E-score. In the case of CACCTGGG it was -0.276 E-score; in that of GCACCAAC, -0.108 E-score; in that of AACTACAC, 0.335 E-score. Then GTGATGGA, with -0.157 E-score; and GAATTCTA, with 0.357 E-score; and ACGTCTAA, with -0.0183 E-score. Take CTGAGCTC: the binding signal is -0.252 E-score.

In the case of AACAACAG, the binding signal is -0.0243 E-score.

As to GGACATAC, the binding signal was -0.09 E-score. ACGCGTTA: the binding signal worked out at 0.123 E-score. Then AGCCCCGA, with -0.261 E-score; and CCCTTCAA, with -0.213 E-score; and CTCTCAAG, with -0.267 E-score. As for AAACTCAA, the binding signal came to 0.188 E-score. Then CAGCTAGC, with 0.0221 E-score; and CACATACA, with 0.167 E-score; and AACCTCCG, with -0.155 E-score. Then CAACAAAC, with -0.0715 E-score; and AACTATAT, with 0.362 E-score; and TCTCCCAA, with -0.224 E-score.

On to CTCAGTCA, for which the binding signal is -0.216 E-score.

In the case of CACCGGAG, the binding signal was -0.156 E-score. In the case of AAGTTACT it was 0.144 E-score; in that of AAACTCCT, -0.106 E-score. Then ACGCACGC, with -0.213 E-score; and AGTCCATA, with 0.0254 E-score. Take AAGCGCTT: the binding signal is -0.257 E-score.

On to AATGATCT, for which the binding signal came out at 0.195 E-score. Then CTAGCCTC, with -0.0478 E-score; and AAACACGC, with -0.0824 E-score.

In turn, CAAACCGC showed a binding signal of -0.22 E-score.

ACACTTCA returned a binding signal of -0.0803 E-score. Then CAATTTCA, with 0.24 E-score; and CGCGTTTC, with -0.0512 E-score. In the case of CAACCAAC it was 0.0714 E-score. GTTTCCAA gave a binding signal of 0.0167 E-score.

These data come from paper PMC6212790.
